From PubChem BioAssay (NCI)
Where “and” joins values, the source holds several entries; their conditions need not be identical. Identical values can stand only once.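 Five concentrations, 48 hours, 96-well plates. GI50 marks 50% less growth. TGI is the concentration that stops growth completely.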

System: NCI-H322M lung
Assay: NCI anticancer screen, dose series, 48 h

SMILES	GI50	TGI
CC(=O)NCc1cccc(C#Cc2cncnc2Nc2ccc(OCc3cccc(F)c3)c(Cl)c2)c1	3.57 µM	> 21.2 µM
OCCNC1c2cc(Cl)ccc2-c2c(Cl)cc(Cl)cc21 (configuration not stated)	–	> 100 µM
COc1ccc(N(CC(=O)NCCC[Te]c2ccccc2)C(=O)CNC(=O)OC(C)(C)C)cc1	2.28 µM	6.56 µM
O=C(NC1CCN(Cc2ccccc2)CC1)c1ccc(I)cc1	–	> 100 µM
O[C@@]12Cc3c([nH]c4ccccc34)[C@@H]3Oc4cccc5c4[C@@]31CCN(CC1CC1)[C@@H]2C5	–	69.8 µM
O=C(O)Cc1cccnc1	–	> 100 µM
CCC1(O)C(=O)OCc2c1cc1n(c2=O)Cc2cc3c(NC(=O)CN)cccc3nc2-1 (configuration not stated)	2.83 µM	40 µM
NNC(=O)c1c(-c2cccnc2)cnc2ccccc12	–	> 100 µM
O=C(CCC1C(=O)NC(=S)NC1=O)c1ccc2ccccc2c1	–	> 100 µM
Cc1ccc(-c2nc([P+](c3ccccc3)(c3ccccc3)c3ccccc3)c(S(=O)(=O)c3ccc(C)cc3)o2)cc1	3.18 µM	12.6 µM
CC1(C)CC(=O)C(/C(=N/NC(=S)NN)C(=O)Nc2nc3ccc([N+](=O)[O-])cc3s2)C(=O)C1	–	> 100 µM
COc1ccc2c(c1)c1c(n2CCN(C)C)-c2ccccc2CC1	–	29.9 µM
CSc1nc2sc3c(c2c(=O)n1-c1ccc(C(C)C)cc1)CCC(=O)C3	3.03 µM	> 100 µM
C[N+]12C=CC=C1C(N1CCCC1)c1scc(-c3ccccc3)c12 (configuration not stated)	–	> 100 µM
C(=N/N(Cc1ccccc1)Cc1ccccc1)/c1ccccc1	> 100 µM	> 100 µM
CN(CCNCc1ccccn1)CCNCc1ccccn1	1.79 µM	4.28 µM
CCCCCCCCCCCCC(Br)C(=O)NCC(N)=O (configuration not stated)	–	28.5 µM
Nc1ncnc2oc(C3OC(COC(=O)c4ccccc4)C(OC(=O)c4ccccc4)C3OC(=O)c3ccccc3)nc12 (configuration not stated)	–	> 100 µM
CCCCCCNC(=O)Oc1ccc(/C(=C(\C)c2ccc(Cl)cc2)c2ccc(OCCN3CCCCC3)cc2)cc1	4.46 µM	11.5 µM
Nc1nc(O)c2ncn([C@H]3CC[C@@H](CO)O3)c2n1	–	> 100 µM
COC(=O)C(CCSC)NC(=O)CNC(=O)CSc1nnc(COc2ccc(Cl)cc2)n1-c1ccccc1 (configuration not stated)	–	32.5 µM
O=C1C(Cl)C2(CC(/C=C/c3ccccc3)=NN2c2cccc(S(=O)(=O)O)c2)N1c1nc2ccccc2s1 (configuration not stated)	–	> 100 µM
O=C(Nc1cccc(-n2cc(-c3ccncc3)c(-c3cc(O)cc(Cl)c3)n2)c1)c1cc(C(F)(F)F)cc(C(F)(F)F)c1	7.92 µM	> 100 µM
COC1=C(OC)C(=O)C(SC/C=C(\C)CCCC(C)CCCC(C)CCCC(C)C)=CC1=O (configuration not stated)	6.24 µM	> 100 µM
Nc1nc(Nc2ccccc2SSc2ccccc2Nc2nc(N)nc(C(Cl)(Cl)Cl)n2)nc(C(Cl)(Cl)Cl)n1	19 µM	> 100 µM

SMILES	GI50	TGI
Cc1ccc(NC(=O)CC2C(=O)Nc3ccccc3S2(=O)=O)c(C)c1 (configuration not stated)	–	68.4 µM
CC(N)Cc1ccc(Cl)c(Cl)c1 (configuration not stated)	–	97.5 µM
CC(=O)OCCOCNC(=S)N/N=C/c1cc(Br)cs1	–	> 100 µM
Cc1ccc(/C(C#N)=C/c2cccc([N+](=O)[O-])c2)cc1	–	> 100 µM
Cc1cccc2c3c(sc12)C(c1ccc(Cl)cc1)C(C#N)=C(N)O3 (configuration not stated)	0.696 µM	23.8 µM
O=c1[nH]c(=S)nc2nc3c4ccc[nH]c4c4ccccc4c3nc12	–	> 100 µM
COc1cc(C(C)O)c[n+](Cc2ccccc2)c1 (configuration not stated)	–	> 100 µM
O=C(CCCCCCN1CC(=O)N2[C@@H](c3ccc(Cl)c(Cl)c3)c3[nH]c4ccccc4c3C[C@H]2C1=O)NO	4.88 µM	19.2 µM
c1ccc2cc(-c3n(Cc4ccc5ccccc5n4)c4ccccc4[n+]3Cc3ccc4ccccc4n3)ccc2c1	0.559 µM	1.87 µM
COc1ccc(/C=N/n2c(C)n[nH]c2=O)c(OC)c1	–	> 100 µM
CC12CCC(=O)N1c1ccc([N+](=O)[O-])cc1N2 (configuration not stated)	–	> 100 µM
C[C@]12C[C@@H](OC(=O)[C@]1(C)O)[C@@H]([C@]1(O)CC[C@H]3[C@@H]4C[C@H]5O[C@]56C[C@H]5O[C@H]5C(=O)[C@]6(C)[C@H]4CC[C@@]31C)C2	–	> 50 µM
COCCNC(=O)C1C(=O)C(=O)N(CCOC)C1=O (configuration not stated)	–	> 100 µM
Cc1cc(N(CCC#N)CCC#N)ccc1/C(N=Nc1cccc(Cl)c1)=N/NC(=O)c1cc(Cl)ccc1O	–	54.1 µM
Nc1c([N+](=O)[O-])nc(Cl)c2nncn12	–	> 100 µM
CC12C=CC(=O)C=C1CCC1C3CCC(O)(C(=O)CO)C3(C)CC(O)C12F (configuration not stated)	–	> 100 µM
CCOC(=O)NNC(=O)NCc1cccc(CNC(=O)NNC(=O)OCC)c1	–	> 100 µM
CC(C)(Br)C(=O)C(Br)Br	48.8 µM	30.9 µM and 90.3 µM
Cc1cc(N=Nc2ccccc2C)ccc1N	16.7 µM	> 100 µM and 59.4 µM
C[N+](C)(C)c1ncnc2c1ncn2C1CC(O)C(CO)O1 (configuration not stated)	–	> 100 µM
O=C(O)CCC(=O)c1ccc2sc3ccccc3c2c1	–	> 100 µM
Cc1ccc(NC(=O)c2cc(S(=O)(=O)Nc3n[nH]c(=O)[nH]3)c(SSc3cc(Cl)c(C(=O)Nc4ccc(C)cc4)cc3S(=O)(=O)Nc3n[nH]c(=O)[nH]3)cc2Cl)cc1	–	> 100 µM
O=C(N/N=C/c1ccc([N+](=O)[O-])cc1)Nc1ccc(C(=O)O)cc1	–	> 100 µM
CC(C)=CCN1CC(C)C(=O)Nc2ccccc21 (configuration not stated)	–	> 100 µM
COc1c(=O)cc2cc[nH]c3ccn(C)c1c23	–	> 100 µM

SMILES	GI50	TGI
O=C1Nc2ccccc2N=CC1NC(=O)C(c1ccccc1)c1ccccc1 (configuration not stated)	–	> 100 µM
Cn1c(-c2ccccc2)cc(-c2cccs2)c1-c1cccs1	–	> 100 µM
COC(=O)c1cc2c(cc1Cl)SC1=NN(C)C(N(C)C)N1S2(=O)=O (configuration not stated)	> 100 µM	> 100 µM
CCCCC1(C)C=C/C(=C2/C(=O)O/C(=C\C(=O)O)C2=O)O1 (configuration not stated)	–	> 100 µM
CCOC(=O)C1(C(=O)OCC)[C@@H](c2ccccc2)C2=NO[C@@H]3CCC[C@H]1[C@H]23	–	> 100 µM
C/C(=C\CBr)CCC(Br)C(C)(C)Cl (configuration not stated)	–	> 100 µM
CC(=O)NC1C(OCc2ccccc2)OC(CO)C(O)C1OC(C)C(=O)NC(C)C(=O)NC(CCC(=O)NCCCCNc1c2ccccc2nc2cccc([N+](=O)[O-])c12)C(N)=O (configuration not stated)	–	0.57 µM
COC(=O)[C@H]1CCCN1C(=O)[C@H]1CCCN1C(=O)[C@@H](Cc1c[nH]c2ccccc12)NC(=S)Nc1cc(C(F)(F)F)cc(C(F)(F)F)c1	2.47 µM	6.84 µM
C[CH2][Sn]([CH2]C)([O]C(=O)c1ccccc1OC)[O][Sn]([CH2]C)([CH2]C)[O]C(=O)c1ccccc1OC	> 100 µM	> 100 µM
ClCCN(CCCl)c1ccc(/C=N/Nc2ccnc3ccccc23)cc1	–	2.78 µM
CCOC(=O)C(C(=O)OCC)=C1NC2(c3ccccc3Nc3ccccc32)C(C#N)S1 (configuration not stated)	–	39.6 µM
COc1ccc(-c2nc(/C=C3\SC(=NCc4ccccc4)NC3=O)c3ccccn23)cc1	1.42 µM	3.81 µM
Nc1[nH]c(=O)nc2c1cnn2C1CCCCO1 (configuration not stated)	–	> 100 µM
c1ccc(-c2nc(N3CCNCC3)c3oc(-c4ccccc4)nc3n2)cc1	1.65 µM	3.01 µM
CC1(c2ccccc2Cl)C(C#N)C(=O)NC(=O)C1C#N (configuration not stated)	–	> 100 µM
CC1OC(OC2C(O)CC(OC3C(O)CC(OC4CCC5(C)C(CCC6C5CC(O)C5(C)C(C7=CC(=O)OC7)CCC65O)C4)OC3C)OC2C)CC(O)C1O (configuration not stated)	0.0489 µM	0.226 µM
COC(=O)[C@@]1(C(C)CC(=O)O)CCCCC1=O (some centres not stated)	–	> 100 µM
CC1(C)OCC([C@H]2O[C@@H](CC(=S)NCCCCCCCCCCCCNC(=S)C[C@H]3O[C@@H](C4COC(C)(C)O4)[C@H]4OC(C)(C)O[C@H]43)[C@H]3OC(C)(C)O[C@H]32)O1 (some centres not stated)	–	> 100 µM
Oc1ccc(C(c2ccc(O)cc2)c2ccc(Br)cn2)cc1	0.249 µM	0.661 µM
COC(=O)c1c(C)n([O-])c2cc(Cl)c(Cl)cc2[n+]1=O	–	59.7 µM
O=[N+]([O-])/C(C(Cl)=C(Cl)Cl)=C(/Cl)SCc1ccccc1	–	35.9 µM
COc1ccc(CCC2c3cc(OC)c(OC)cc3CCN2C)cc1OC (configuration not stated)	–	> 100 µM
N#Cc1c2c(c(N)oc1=O)C(c1ccccc1)CC(=O)N2 (configuration not stated)	–	> 100 µM
O=S(=O)(/C=C/C(=C/c1ccccc1)S(=O)(=O)c1ccccc1)c1ccccc1	–	3.51 µM
Cc1nc(C(=O)O)c2ccccc2n1	–	> 100 µM

SMILES	GI50	TGI
O=c1[nH]nc(Cc2ccccc2)n1C1CCCC1	–	> 100 µM
C/C(=C\c1cnc(C)s1)[C@@H]1C[C@@H]2O[C@@H]2CCC[C@H](C)[C@H](O)[C@@H](C)C(=O)C(C)(C)[C@@H](O)CC(=O)O1	< 0.01 µM	> 100 µM
O=[N+]([O-])c1ccc(N2CCOCC2)c2c1no[n+]2[O-]	5.17 µM	18.3 µM
O=[N+]([O-])c1ccc(OC2CC3C4C=CC3C2C4)c([N+](=O)[O-])c1 (configuration not stated)	83.4 µM and 30.7 µM	> 100 µM
Cc1nc2ccc(C(F)(F)F)cc2nc1NCc1ccc(Cl)c(Cl)c1	–	29.8 µM
CC(=O)C1=CN=C2C(=O)N(c3ccccc3)N(C)C12C (configuration not stated)	–	> 100 µM
CC(C)(O)CNc1nc(Nc2ccnc(C(F)(F)F)c2)nc(-c2cccc(C(F)(F)F)n2)n1	23 µM	69.1 µM
NC(=O)NNC(=O)NC12CC3CC(CC(C3)C1)C2	–	> 100 µM
CC(C)C(C(=O)O)N1C(=O)c2ccccc2C1=O (configuration not stated)	–	> 100 µM
COc1ccc(/C(Br)=C2\OC(=O)c3ccccc32)cc1	–	> 10 µM
NC1CC(=O)c2c1sc(Cl)c2Cl (configuration not stated)	–	> 100 µM
COC(=O)c1cc2c(c3c1CC(Cc1ccccc1)C3=O)CCC2 (configuration not stated)	–	> 100 µM
COC(=O)[C@]1(NC(=O)c2ccccc2)C[C@H]1C=O	–	> 100 µM
[N-]=[N+]=NI1OC(=O)c2ccccc21	–	> 100 µM
O=C(c1cccs1)N(C(=S)OCCOc1ccccc1)c1ccccc1	–	> 100 µM
OCCN(CCO)c1ncnc2nc[nH]c12	–	> 100 µM
C=CNC(=O)NC(=O)CSc1nnc(-c2ccccc2NC(=O)C(F)(F)F)c(=O)[nH]1	–	> 100 µM
COc1ccc(/C=C2\CCC(C)(CN(C)C)C2=O)cc1OC (configuration not stated)	–	> 100 µM
N#CC1=C(/N=C/c2ccccc2)Oc2c(ccc3ccccc23)C1c1ccccc1 (configuration not stated)	2.18 µM	> 100 µM
COC(=O)c1cncc(/C=C/c2c(C)cc(O)cc2C)c1	> 24 µM	> 25 µM
COc1ncnc(NS(=O)(=O)c2ccc(N=C3C(=O)N(CN4CCN(c5c(F)cc6c(=O)c(C(=O)O)cn(C7CC7)c6c5OC)CC4C)c4ccc(Br)cc43)cc2)c1OC (configuration not stated)	4.77 µM	25.1 µM
COC(=O)c1ccc2c(c1)S/C(=C/c1ccc3ccc4cccc5ccc1c3c45)S2	–	> 100 µM
